In article PMC5787466, “Accelerated bottom-up drug design platform enables the discovery of novel stearoyl-CoA desaturase 1 inhibitors for cancer therapy” (Oncotarget, 2017):

What was measured:
[1] = test system: 4 ccRCC cell lines; test: High-throughput proliferative screen, single point; details: in at least 2/4 ccRCC cell lines
[2] = test system: Caki2; test: Proliferation dose-response IC50, Caki2; format: cell-based; details: Homo sapiens, CAKI-2; proliferative IC50, linear regression modeling of dose-response; read-out: IC50 (μM) Caki2
Experimental: (§1) Error bars indicate standard deviation for n=2 replicates. […] To evaluate inhibition of SCD1 by these molecules, we used LC/MS to quantify changes in SCD1-catalyzed conversion of stearoyl-CoA to oleoyl-CoA in response to drug treatments in vitro using SCD1 protein extracted from murine liver (Figure 3c, Supplementary Figure 2g). […] Synthesis routes and spectral data including NMR and MS are also provided (Supplementary Figures 3-6).
(§2) Cells were seeded at 5,000 cells/well in clear-bottom 96-well plates in triplicate. Drug treatment was applied at 1:1000 in reduced serum conditions (3%). […] Alternatively, cells were plated 2x10^5/well in 12-well plates (Genesee Scientific) in triplicate prior to drug treatment. After 120-hour treatment, cell number was established using a Coulter Particle Counter (Beckman). Oleic acid-albumin (Sigma Aldrich) was added to media at 5µM, and was applied adjuvant to drug treatment. Drug stocks were prepared in DMSO (Sigma) at 1000x. IC50 dosing per cell line was calculated using CalcuSyn analytical software.

[3] = test system: ACHN; test: Proliferation dose-response IC50, ACHN; format: cell-based; details: Homo sapiens, proliferative IC50, linear regression modeling of dose-response, read-out: IC50 (μM) ACHN
Experimental: as §1, §2

[4] = test system: Caki1; test: Proliferation dose-response IC50, Caki1; format: cell-based; details: Homo sapiens, CAKI-1; proliferative IC50, linear regression modeling of dose-response; read-out: IC50 (μM) Caki1
Experimental: as §1, §2

Structure (SMILES) | decrease in proliferation [1] [%] | IC50 [2] [µM] | IC50 [3] [µM] | IC50 [4] [µM]
CNC(=O)c1ccccc1OCC(=O)N1CCN(C(=O)c2ccccc2C(F)(F)F)CC1 [SSI-1] | > 40 | – | – | –
O=C(NCc1ccnc(OCc2ccccc2)c1)N1CCN(C(=O)c2ccccc2C(F)(F)F)CC1 [SSI-3] | > 40 | – | – | –
CNC(=O)c1cc(S(=O)(=O)N2CCC(Oc3ccccc3Cl)CC2)c[nH]1 [SetA.68] | > 40 | 0.009 | 0.05 | 12
O=C(Nc1ccc(OCc2ccccc2)nc1)N1CCN(C(=O)c2ccccc2C(F)(F)F)CC1 [SSI-2] | > 40 | – | – | –
